{
  "source": "PubChem BioAssay AID720536",
  "about": "(National Center for Advancing Translational Sciences (NCATS), 2013)",
  "note": "In all, about 1,600 compounds went through this assay and about 650 (41%) were called active. The set was probably picked from earlier hits. Inconclusive results, whose numbers are uncertain, are shown with a selection of clear calls. Calls follow the shape of the dose curve; as a rule, active = well fitted inhibition curve with a large enough effect; inconclusive = small, poorly fitted or top-dose-only effect; inactive = no such curve, though single readings can be large or run the other way. Potencies of inconclusive entries are left out as doubtful fits. Potency is read from the fitted curve at half-maximal effect; tags tell the direction and shape of the fitted curve.",
  "data": [
    {"assay": "qHTS for Inhibitors of TGF-b: CCL64 Cells Orthogonal Assay for Cherry Picks; also: nearly all actives have a fitted effect of over 65% in size;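 as to activity, negative = inhibition: 0% = stimulated DMSO wells and full inhibition = unstimulated wells without TGF-beta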", "settings": "CCL64 CAGA-GFP reporter, TGF-b stimulated, GFP fluorescence, 18 h; activity, negative = inhibition: at 46.1 µM (top of the series)", "in_short": "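CCL64 cells carrying a CAGA-GFP reporter (1000/well, DMEM with 1% FBS) were pre-incubated 2 h at 37 degrees C, given compound, then stimulated with 500 pg/mL TGF-beta for 18 h. Per-cell GFP fluorescence was summed per well.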", "values": [
      {"smiles": "CC1(Cc2cccc(C(F)(F)F)c2)C(=O)Nc2ccc(-c3ccc(F)c(Cl)c3)cc21", "note": "(centres undefined)", "Potency": "inconclusive [inhibitor, single point]"},
      {"smiles": "Oc1ccccc1-c1nc(NCc2cccnc2)c2ccccc2n1", "Potency": "inconclusive [inhibitor, single point]"},
      {"smiles": "Cc1cc(C)c2c(N)c3ccccc3nc2n1", "Potency": "active: 13 µM"},
      {"smiles": "COc1cc(/C=C(\\C#N)c2nc3ccccc3[nH]2)cc(Br)c1OCc1ccccc1", "Potency": "inactive"},
      {"smiles": "COc1cccc(/C=N/Nc2ccc([N+](=O)[O-])cn2)c1O", "Potency": "inconclusive [inhibitor, full curve]"},
      {"smiles": "COc1ccc(-c2c(C(F)(F)F)[nH]n3c(=O)cc(-c4ccccc4)nc23)cc1", "Potency": "active: 8.2 µM"},
      {"smiles": "COC(=O)c1ccc(Cn2c(C)c(C(=O)NCc3ccc(Cl)c(Cl)c3)sc2=O)o1", "Potency": "inactive"},
      {"smiles": "Cc1cc2nc(-c3ccc(F)cc3)c(CC(C)(C)C)n2c(C)c1Br", "Potency": "inconclusive [inhibitor, single point]"},
      {"smiles": "COc1ccc(CNC(=O)[C@@H]2CCCN2C(=O)[C@@H]2Cc3ccccc3CN2C(=O)OC(C)(C)C)cc1", "Potency": "inactive"},
      {"smiles": "CCCCCCC[C@@H](C/C=C/CCC(=O)N(C)C/C(=C/Cl)C/C(=C\\C(=O)N1CC(OC)=CC1=O)OC)OC", "Potency": "active: 7.31 µM"},
      {"smiles": "CC(C)(O)C#Cc1ccc([C@@H]2C[C@H]3CN(c4ccccc4)C(=O)[C@]34CCCN24)s1", "Potency": "active: 5.17 µM"},
      {"smiles": "COc1ccc(C(=O)Nc2ccc(C)c(S(=O)(=O)N3CCOCC3)c2)cc1S(=O)(=O)N1CCCC1", "activity, negative = inhibition": "inconclusive: -32.4% [inhibitor]"},
      {"smiles": "CCO[C@@H]1OC(C(=O)NCc2nc3ccccc3[nH]2)=C[C@H](C(C)(C)C)[C@H]1CCCO", "Potency": "inconclusive [inhibitor, single point]"},
      {"smiles": "CC(C)C[C@@H](CN1CCC[C@@H]1CN1C(=S)NC[C@@H]1Cc1ccc(O)cc1)N1C[C@H](Cc2ccc(O)cc2)N(CC2CCCCCC2)C1=S", "Potency": "active: 8.2 µM"},
      {"smiles": "CC(C)c1ccccc1OCC(=O)NC1CCCc2ccccc21", "note": "(centres undefined)", "Potency": "inconclusive [inhibitor, single point]"},
      {"smiles": "COc1cc2c(c(Br)c1N)-c1cc(Br)c(N)cc1C2=O", "Potency": "inactive"},
      {"smiles": "FC(F)Oc1ccc(-c2csc(=Nc3cccnc3)n2CC2CCCO2)cc1", "note": "(centres undefined)", "Potency": "inactive"},
      {"smiles": "O=C(c1ccco1)N1CCN(C(=O)C2CCCc3c2[nH]c2ccc(Cl)cc32)CC1", "note": "(centres undefined)", "Potency": "inconclusive [inhibitor, partial curve, poor fit]"},
      {"smiles": "O=C(Nc1ccc(N2CCOCC2)c(Cl)c1)c1ccc([N+](=O)[O-])o1", "Potency": "active: 13 µM"},
      {"smiles": "CC(C)(C)c1ccc(Cn2nnc3c(=O)[nH]c(C4CCN(C(=O)c5ccco5)CC4)nc32)cc1", "Potency": "inactive"},
      {"smiles": "CC(C)(C)c1ccc(OCCNC(=S)Nc2ccccc2)cc1", "Potency": "inconclusive [inhibitor, single point]"},
      {"smiles": "CC(=O)N1CCc2c(sc(NC(=O)c3ccc([N+](=O)[O-])o3)c2C#N)C1", "Potency": "active: 10.3 µM"},
      {"smiles": "Cc1ccnc(Nc2nc(-c3sc(C)nc3C)cs2)c1", "Potency": "inconclusive [inhibitor, single point]"},
      {"smiles": "CN(C(=S)NC(=O)c1ccccc1Br)C1CCCCC1", "Potency": "inactive"},
      {"smiles": "Clc1ccc2nc(-c3cccc(Br)c3)c(Cc3ccsc3)n2c1", "Potency": "inconclusive [inhibitor, single point]"},
      {"smiles": "Cc1ccc2sc(N(CCCN(C)C)C(=O)CCS(=O)(=O)c3ccccc3)nc2c1C", "Potency": "active: 3.26 µM"},
      {"smiles": "CN(C)c1nc(N/N=C/c2ccccc2O)nc(Nc2ccc(F)cc2)n1", "Potency": "inconclusive [inhibitor, single point]"},
      {"smiles": "ON=C1c2ccccc2-c2ccc(F)cc21", "Potency": "inactive"},
      {"smiles": "Cc1ccnc(Nc2nc(-c3ccccc3)cs2)c1", "Potency": "inactive"},
      {"smiles": "O=C(NCCc1cccs1)C1CC(c2ccccc2F)=NO1", "note": "(centres undefined)", "Potency": "inactive"},
      {"smiles": "O=[N+]([O-])c1ccc(NC(=S)NCCc2ccc(Cl)cc2)cc1", "Potency": "active: 4.61 µM"},
      {"smiles": "c1ccc(Nc2nc(-c3ccncc3)nc3ccccc23)cc1", "Potency": "inactive"},
      {"smiles": "Cc1ccc(SCCNC(=O)c2ccc(C)c(S(=O)(=O)Nc3cccc(C)c3)c2)cc1", "Potency": "inconclusive [inhibitor, single point]"},
      {"smiles": "Cc1cc(C(=O)N2CCN(C/C=C/c3ccccc3)CC2)cs1", "Potency": "inactive"},
      {"smiles": "Cn1c(=O)oc2cc(S(=O)(=O)N3CCCC(C(=O)NC4CCCc5ccccc54)C3)ccc21", "note": "(centres undefined)", "Potency": "inactive"},
      {"smiles": "CC1CCN(C(=O)c2[nH]cnc2C(=O)NCc2ccccc2)CC1", "Potency": "inactive"},
      {"smiles": "CCN(CC)C(=O)[C@H]1CC(CC(=O)NCc2cccc(C(F)(F)F)c2)C(=O)N2CCc3c([nH]c4ccc(OC)cc34)[C@]12C", "note": "(some centres undefined)", "Potency": "inconclusive [inhibitor, partial curve]"},
      {"smiles": "CC(=O)Nc1cc(OC(C)=O)c2nonc2c1OC(C)=O", "Potency": "active: 20.6 µM"},
      {"smiles": "COc1ccc2[nH]c3c(c2c1)CCN1C(=O)C(CC(=O)NCCC2=CCCCC2)C[C@H](C(=O)N2CCCCC2)[C@@]31C", "note": "(some centres undefined)", "Potency": "inactive"},
      {"smiles": "CCC(C)N1C(=O)S/C(=C/c2ccc(Sc3nc4ccccc4[nH]3)o2)C1=O", "note": "(centres undefined)", "Potency": "inconclusive [inhibitor, partial curve, poor fit]"},
      {"smiles": "COc1cccc(-c2cnc3c(NC=O)cc(-c4ccc(OC)cc4OC)cn23)c1", "Potency": "active: 3.26 µM"},
      {"smiles": "Cn1c(NCC2CCCCC2)nc2cc(-c3ccsc3)sc2c1=O", "Potency": "inconclusive [inhibitor, single point]"},
      {"smiles": "O=C(NCc1ccco1)c1nc2c(nnn2Cc2ccccc2Cl)c(=O)[nH]1", "Potency": "active: 8.2 µM"},
      {"smiles": "O=C(NC(=S)Nc1ccc(Br)c(Cl)c1)C1CC1", "Potency": "inconclusive [inhibitor, single point]"},
      {"smiles": "Cn1cnc([N+](=O)[O-])c1Sc1nc(N)nc2c1ncn2C1OC(CO)C(O)C1O", "note": "(centres undefined)", "Potency": "inactive"},
      {"smiles": "CC(C)C(=O)NC(c1cccc([N+](=O)[O-])c1)c1ccc2cccnc2c1O", "note": "(centres undefined)", "Potency": "active: 7.31 µM"},
      {"smiles": "COC(=O)c1c(NC(NC(=O)C(C)(C)C)C(Cl)(Cl)Cl)sc2c1CCC2", "note": "(centres undefined)", "Potency": "inconclusive [inhibitor, single point]"},
      {"smiles": "COc1cc(NC(=O)C2Cc3ccccc3CN2S(C)(=O)=O)cc(OC)c1", "note": "(centres undefined)", "Potency": "inactive"},
      {"smiles": "COc1ccccc1CNS(=O)(=O)c1ccc2c(c1)CC(C)N2C(=O)C1CCC1", "note": "(centres undefined)", "Potency": "inactive"},
      {"smiles": "CCOc1ccc(N(CC(=O)N/N=C/c2cc([N+](=O)[O-])ccc2Cl)S(C)(=O)=O)cc1", "Potency": "inconclusive [inhibitor, single point]"},
      {"smiles": "NC(=O)c1cccc(-c2cnc(N)c(C(=O)c3cccnc3)n2)c1", "Potency": "inactive"},
      {"smiles": "O=C(c1cc(S(=O)(=O)Nc2ccccc2F)c(Cl)cc1Cl)N1CCN(CCO)CC1", "activity, negative = inhibition": "inconclusive: -32.8% [inhibitor]"},
      {"smiles": "Cc1ccc(OC(C)C(=O)Nc2ccncc2)cc1C", "note": "(centres undefined)", "Potency": "inactive"},
      {"smiles": "C=CCn1c(O)c(N=NC(=S)Nc2ccc(OC)cc2)c2ccccc21", "Potency": "inconclusive [inhibitor, full curve]"},
      {"smiles": "S=C(Nc1ccccn1)c1ccccn1", "Potency": "inconclusive [inhibitor, single point]"},
      {"smiles": "Cc1cc(Cl)ccc1N=c1ssnc1Cl", "Potency": "inconclusive [inhibitor, single point]"},
      {"smiles": "Cc1ccc(Cc2c(-c3ccc(Cl)cc3)nc3cc(C)c(Br)c(C)n23)cc1", "Potency": "inactive"},
      {"smiles": "Cc1cc(Nc2ccccc2)nc(NCc2ccccc2)n1", "Potency": "active: 14.6 µM"},
      {"smiles": "COc1ccccc1NC(=O)c1ccc([N+](=O)[O-])o1", "Potency": "inconclusive [inhibitor, partial curve, poor fit]"},
      {"smiles": "Cc1ccc(NC(=O)c2cc3c(s2)CCCC3)cc1S(=O)(=O)Nc1ccccc1Cl", "Potency": "inconclusive [inhibitor, partial curve, poor fit]"},
      {"smiles": "Cc1cccc(-c2nc(Nc3ccc(O)cc3)c3ccccc3n2)c1", "Potency": "inconclusive [inhibitor, single point]"},
      {"smiles": "COc1ccc(-c2ccc(C(=O)Nc3cccc(NS(C)(=O)=O)c3)c3occc23)c(C)c1", "Potency": "active: 23.1 µM"},
      {"smiles": "CC(NCC(O)COCCC12CC3CC(CC(C3)C1)C2)c1ccccc1", "note": "(centres undefined)", "Potency": "inconclusive [inhibitor, single point]"},
      {"smiles": "COc1ccc(C(=O)CSc2cc(C)nc(SCC(=O)c3ccc(C)cc3)n2)cc1", "Potency": "inactive"},
      {"smiles": "OCCCn1c(CCCNc2nc(-c3cccc(Br)c3)cs2)nc2cc(Cl)c(N3CCCCC3)cc21", "Potency": "inconclusive [inhibitor, single point]"},
      {"smiles": "CC(C)c1ccc(CN2CCN(C(=O)CSc3nnnn3C3CC3)CC2)cc1", "Potency": "inactive"},
      {"smiles": "O=C(NNC(=O)c1ccc([N+](=O)[O-])o1)c1ccccc1", "Potency": "inactive"},
      {"smiles": "CCN(CC)C(=O)c1ccc2nc3ccccc3nc2c1", "Potency": "inactive"},
      {"smiles": "CCOC(=O)c1c(C)[nH]c(C(=O)OCC(=O)NCCc2ccc(OCC)c(OCC)c2)c1C", "Potency": "inactive"},
      {"smiles": "COc1ccc2c(c1)OC[C@H]1[C@H]2N2C(=O)CN(Cc3ccc(Cl)cc3)C(=O)[C@@]2(C)[C@H]1c1ccccc1", "Potency": "inactive"},
      {"smiles": "Cc1ccc(NC(=O)CSc2nn(-c3ccc(Cl)cc3)c(=S)s2)cc1S(=O)(=O)N(C)C", "Potency": "inactive"},
      {"smiles": "Cc1ccccc1NC1=NCC(c2ccc([N+](=O)[O-])cc2)S1", "note": "(centres undefined)", "Potency": "active: 8.2 µM"},
      {"smiles": "O=C1N[C@@H](c2ccccc2)COC(=O)[C@@H](Cc2ccc(F)cc2)CC/C=C/C[C@@H]1CC(=O)N(CCO)Cc1ccccc1", "Potency": "inconclusive [inhibitor, single point]"},
      {"smiles": "O=C(c1cc(-c2ccc(Br)cc2)nc2ccccc12)N1CCN(c2ccccc2O)CC1", "Potency": "inconclusive [inhibitor, partial curve]"}
    ]}
  ]
}
